Source: PubChem BioAssay AID588342 (National Center for Advancing Translational Sciences (NCATS), 2011)
“And” between values parts separate entries of the source, which are not always exact repeats. Equal entries are not always repeated. The campaign covered roughly 360,000 compounds. About 25,000 (6.9%) were called active. Inconclusive results, whose numbers are uncertain, are shown with a selection of clear calls. The call rests on the fitted dose curve; in most records, active means well fitted inhibition curve with a large enough effect; inconclusive means small, poorly fitted or top-dose-only effect; inactive means flat fitted curve, though single readings scatter. Potencies beside an inconclusive call are fits to weak or partial responses and may not hold up.
Further: nearly all actives have a fitted effect of over 55% in size.
Potency means the concentration at half of the fitted maximal effect; tags describe the fitted curve by direction and shape.

What follows are compounds tested against Luciferin 4-monooxygenase (Photinus pyralis) (UniProt P08659) (assay: qHTS profiling assay for firefly luciferase inhibitor/activator using purifed enzyme and Km concentrations of substrates (counterscreen for miR-21 project)). Conditions: purified FLuc, luminescence inhibition; series mostly up to 57.5 µM.
Chain of UniProt P08659 (P08659 whole entry, looked up): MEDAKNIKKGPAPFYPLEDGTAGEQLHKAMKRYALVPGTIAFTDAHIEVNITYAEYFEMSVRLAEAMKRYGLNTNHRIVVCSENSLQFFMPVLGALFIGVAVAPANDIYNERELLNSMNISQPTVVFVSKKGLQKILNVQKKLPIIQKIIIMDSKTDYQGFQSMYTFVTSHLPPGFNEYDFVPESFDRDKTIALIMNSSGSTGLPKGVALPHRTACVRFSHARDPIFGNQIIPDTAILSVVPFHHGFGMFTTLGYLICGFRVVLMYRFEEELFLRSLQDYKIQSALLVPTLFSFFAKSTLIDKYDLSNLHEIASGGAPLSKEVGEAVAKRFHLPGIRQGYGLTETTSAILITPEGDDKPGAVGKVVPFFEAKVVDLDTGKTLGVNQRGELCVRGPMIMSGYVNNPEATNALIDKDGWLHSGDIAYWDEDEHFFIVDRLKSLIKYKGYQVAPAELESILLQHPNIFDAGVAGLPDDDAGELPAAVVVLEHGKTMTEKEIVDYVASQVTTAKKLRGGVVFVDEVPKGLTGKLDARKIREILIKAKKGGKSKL
Method in brief: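 Purified P. pyralis luciferase, 10 nM final, with Km-level 10 uM D-luciferin and 10 uM ATP in 50 mM Tris acetate pH 7.5, 10 mM Mg acetate, 0.01% Tween-20, 0.05% BSA; 6-point qHTS titration about 60 µM downward; luminescence read.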
For O=C(Nc1ccc(F)cc1)Nc1ccc(NC(=O)c2ccccc2O)cc1, the Potency was “inactive”.
For COc1ccc(/C=C2\Sc3ccc(C(=O)NCC4CCCO4)cc3N(C)C2=O)cc1 (stereo not given), the Potency was inconclusive: 8.49 µM [inhibitor, partial curve, poor fit].
With COC(=O)CC1(C(=O)OC)Oc2ccc(Br)cc2C(=O)N1c1cccc(Cl)c1Cl (stereo not given) the Potency was “inactive”.
CC(C)NC(=O)c1ccc(-c2ccccc2C(F)(F)F)o1 was tested, and the Potency was inconclusive: 21.3 µM [inhibitor, partial curve, poor fit].
COc1ccc(CNC(=O)CSCc2nc(-c3ccccc3C)oc2C)cc1 was tested, and the Potency was inconclusive: 23.9 µM [inhibitor, single point].
For CCOC(=O)C1(Cc2ccccc2)CCCN(C(=O)c2cnn(CC)c2)C1 (stereo not given), the Potency was active: 15.1 µM.
In the case of COc1ccc(Nc2ccc3c(c2)=NC2(CCCCC2)[N+]=3[O-])cc1, the Potency was inconclusive: 37.9 µM [inhibitor, single point].
For O=C(Nc1ccc(S(=O)(=O)NC2=NCCCCC2)cc1)c1ccc2ccccc2n1, the Potency was inconclusive: 37.9 µM [inhibitor, single point].
With Cc1ccc(SCc2ccc(C(=O)Nc3cc([N+](=O)[O-])ccc3C)cc2)cc1 the Potency was inconclusive: 37.9 µM [inhibitor, partial curve, poor fit].
For Cc1cccc(N2C(=O)CS/C2=N\NC(=O)c2ccc(Cl)cc2)c1C, the Potency was inconclusive: 19 µM [inhibitor, partial curve, poor fit].
O=[N+]([O-])c1ccc(O)c(C=Nc2ccc3c(c2)OCCO3)c1 was tested, and the Potency was inconclusive: 21.3 µM [inhibitor, partial curve].
With COc1cccc(C(=O)NNC(=O)/C=C/c2ccccc2)c1 the Potency was “inactive”.
CCOc1ccc(-c2ccc(SCC(=O)N3CCN(c4ccccc4)CC3)nn2)cc1 was tested, and the Potency was inconclusive: 0.536 µM [inhibitor, full curve].
For O=C(N/N=C/c1cccnc1)c1cccc(Br)c1, the Potency was inconclusive: 19 µM [inhibitor, single point].
Cc1ccc(S(=O)(=O)NNC(=O)c2cc3cc4ccccc4nc3s2)cc1 was tested, and the Potency was inconclusive: 33.8 µM [inhibitor, single point].
Cc1cccc(/C=N\Nc2nnc(-c3ccccc3)c(=O)[nH]2)c1 was tested, and the Potency was “inactive”.
With Cc1ccccc1CNC(=O)c1ccc2c(c1)c(C)c(C)n2C the Potency was inconclusive: 21.3 µM [inhibitor, partial curve, poor fit].
For Cc1ccc(C(=O)Nc2ccc(O)cc2C(=O)O)cc1, the Potency was active: 10.7 µM.
CCc1ccc(CNC(=O)c2cnc3sc(N4CCCC4)nn3c2=O)cc1 was tested, and the Potency was “inactive”.
In the case of COc1ccc(S(=O)(=O)NNC(=O)c2cc3cc4ccccc4nc3s2)cc1, the Potency was inconclusive: 1.9 µM [inhibitor, full curve].
With O=C(O)c1cccc(-n2c(/C=C/c3ccccc3)nc3ccccc3c2=O)c1 the Potency was inconclusive: 30.1 µM [inhibitor, single point].
In the case of O=C(NC(=S)Nc1nc(-c2ccc([N+](=O)[O-])cc2)cs1)c1ccco1, the Potency was inconclusive: 7.57 µM [inhibitor, partial curve, poor fit].
In the case of COc1cc(NS(=O)(=O)c2ccc(NC(=S)NC(=O)COc3ccccc3OC)cc2)nc(OC)n1, the Potency was inconclusive: 23.9 µM [inhibitor, single point].
CCOc1ccc(-c2nc(-c3ccccc3)no2)cc1OCC was tested, and the Potency was active: 13.5 µM.
For COc1ccc(/C=C/C(=O)OCC(=O)N2CCCCCC2)c(OC)c1, the Potency was inconclusive: 23.9 µM [inhibitor, partial curve, poor fit].
COc1ccccc1OC(C)C(=O)Nc1cccc(-c2nc3ccccc3s2)c1 (stereo not given) was tested, and the Potency was active: 10.7 µM.
In the case of CC(C)CCNC(=O)c1cc2c(s1)-c1ccccc1S(=O)(=O)C2, the Potency was inconclusive: 37.9 µM [inhibitor, partial curve, poor fit].
With COc1ccc(-c2noc(-c3ccc(Br)o3)n2)cc1OC the Potency was “inactive”.
COc1ccc(NC(=O)c2scc(S(=O)(=O)C(C)C)c2N)cc1 was tested, and the Potency was active: 6.01 µM.
For c1ccc(COc2ccc(OCCCn3cncn3)cc2)cc1, the Potency was active: 4.26 µM.
With Cc1cc(C)nc(Nc2ccc(Br)cc2C(=O)O)n1 the Potency was inconclusive: 37.9 µM [inhibitor, partial curve, poor fit].
In the case of Cc1onc(-c2ccccc2)c1C(=O)Nc1nnc(-c2ccncc2)s1, the Potency was inconclusive: 23.9 µM [inhibitor, single point].
In the case of CC(OC(=O)Cn1nnc2ccccc21)C(=O)NC1CCCC1 (stereo not given), the Potency was “inactive”.
With O=C(CCSCc1ccccc1Cl)NCc1cccs1 the Potency was inconclusive: 21.3 µM [inhibitor, partial curve, poor fit].
Cc1ccccc1N1CCN(S(=O)(=O)c2nnc(NC(=O)c3ccc(C(C)C)cc3)s2)CC1 was tested, and the Potency was active: 23.9 µM.
With O=C(NC1CCCC1)c1cc(-c2ccc(Cl)cc2Cl)on1 the Potency was active: 0.849 µM.
CC1(C)OC(=O)C(=NNc2ccccc2)C(=O)O1 was tested, and the Potency was inconclusive: 19 µM [inhibitor, partial curve, poor fit].
With Cc1ccc(NC(=O)CSc2nnc(-c3ccc([N+](=O)[O-])cc3)o2)c(C)c1 the Potency was “inactive”.
Cn1cnnc1SCC(=O)Nc1ccc2c(c1)CCC2 was tested, and the Potency was “inactive”.
In the case of S=C(Nc1ccc2nsnc2c1)N1CCCC1, the Potency was inconclusive: 23.9 µM [inhibitor, partial curve, poor fit].
In the case of C=CCN=c1scc(C)n1/N=C/c1ccc(O)c(O)c1, the Potency was active: 26.9 µM.
Cc1cccc(C(=O)N[C@H](C(=O)Nc2cc(S(=O)(=O)N3CCCCC3)ccc2C)C(C)C)c1 was tested, and the Potency was “inactive”.
COc1cccc(/C=C/C(=O)c2c(O)cc(C)oc2=O)c1O was tested, and the Potency was inconclusive: 23.9 µM [inhibitor, partial curve, poor fit].
For Cc1cc(=O)[nH]c(SCC(=O)NC(C)C2CC3CCC2C3)c1C#N (stereo not given), the Potency was inconclusive: 23.9 µM [inhibitor, partial curve, poor fit].
CC(=O)Nc1ccc(/C=C/c2noc(-c3ccccc3O)n2)cc1 was tested, and the Potency was inconclusive: 12 µM [inhibitor, partial curve] and inconclusive: 5.36 µM [inhibitor, partial curve].
For COC(=O)C1=NN(C(=O)c2ccc(C)cc2)C(O)(c2ccc(Cl)cc2)C1 (stereo not given), the Potency was inconclusive: 37.9 µM [inhibitor, single point].
For CCc1nnc(NC(=O)c2cc(=O)c3cc(C)ccc3o2)s1, the Potency was inconclusive: 37.9 µM [inhibitor, partial curve, poor fit].
In the case of CCn1cc(C(=O)Nc2ccc(F)c(F)c2)cn1, the Potency was inconclusive: 37.9 µM [inhibitor, partial curve, poor fit].
Cc1cc2c(=O)n(CC(=O)NCC(=O)Nc3ccc(C(C)C)cc3)cnc2s1 was tested, and the Potency was “inactive”.
In the case of N/C(=N\OC(=O)CCc1ccccc1)c1ccc(Cl)cc1, the Potency was inconclusive: 19 µM [inhibitor, partial curve].
In the case of CCOc1ccc(OCC)c(NC(=O)c2cc(S(=O)(=O)N3CCc4ccccc43)cn2C)c1, the Potency was “inactive”.
In the case of O=[N+]([O-])c1cccn2cc(-c3ccc(Br)cc3)nc12, the Potency was inconclusive: 7.57 µM [inhibitor, partial curve].
In the case of Cc1ccc(S(=O)(=O)CC(=O)Nc2nc3c(C)cc(C)cc3s2)cc1, the Potency was inconclusive: 30.1 µM [inhibitor, single point].
For O=[N+]([O-])c1ccccc1-c1ccc(C(=S)N2CCCC2)o1, the Potency was active: 21.3 µM.
CCN(CC(=O)Nc1c(F)cccc1F)C(=O)c1ccc(Cl)c(S(=O)(=O)N2CCCCC2)c1 was tested, and the Potency was “inactive”.
For CCOc1ccc(-c2cccc(NS(=O)(=O)c3ccc(F)cc3F)c2)nn1, the Potency was inconclusive: 12 µM [inhibitor, partial curve, poor fit].
Cc1ccc(NC(=O)Nc2ccc(F)cc2)nc1 was tested, and the Potency was active: 10.7 µM.
For COc1ccc(-c2nc3ccccc3o2)cc1OC, the Potency was active: 10.7 µM.
In the case of O=C(Cn1cc(C(=O)c2cccs2)c2ccccc21)NCc1ccc2c(c1)OCO2, the Potency was inconclusive: 30.1 µM [inhibitor, single point].
In the case of CCOC(=O)C1CCCN(C(=O)CC(C)c2ccccc2)C1 (stereo not given), the Potency was inconclusive: 23.9 µM [inhibitor, single point].
CCCOc1ccc(C2c3c(-c4ccccc4O)n[nH]c3C(=O)N2CCc2ccccc2)cc1OCC (stereo not given) was tested, and the Potency was “inactive”.
With NC(=O)c1sc2nc3c(c(-c4cccnc4)c2c1N)CCC3 the Potency was “inactive”.
In the case of CC(=O)c1cccc(NC(=O)c2cc(-c3ccc(F)cc3)on2)c1, the Potency was inconclusive: 0.478 µM [inhibitor, partial curve, poor fit].
O=c1sc(Nc2ccccc2)nc2ccsc12 was tested, and the Potency was active: 12 µM.
With COc1ccc(CNn2c(C)nc3ccccc3c2=O)cc1 the Potency was inconclusive: 23.9 µM [inhibitor, partial curve, poor fit].
O=C(O)c1cn(-c2ccccc2)nc1-c1ccc(F)cc1 was tested, and the Potency was inconclusive: 37.9 µM [inhibitor, single point].
For Cc1cccc(-n2c(C)cc(C(=O)C(=O)Nc3ccccc3F)c2C)c1C, the Potency was inconclusive: 13.5 µM [inhibitor, partial curve, poor fit].
For COc1ccc(NC(=O)Nc2nnc(-c3cccs3)s2)cc1, the Potency was inconclusive: 1.69 µM [inhibitor, partial curve, poor fit].
For Cc1cc(C)c2c(N)c(C(=O)Nc3ccc(F)cc3)sc2n1, the Potency was active: 1.51 µM.
With CCN(CC)S(=O)(=O)c1cccc(C(=O)Nc2ccccc2C(=O)Nc2ccc(Cl)cc2)c1 the Potency was inconclusive: 30.1 µM [inhibitor, partial curve, poor fit].
